# This is one part of the list.
# B1: GS7807H-bfa-490-18-490 (Bacteroides fragilis) (protein)
# chain: GNLEEMNIDPDNATQTHPKLLLTQICMNAFKRGTDGMYATKKVIQADGESADQYYKWTRGSFGYYDNLRNVQKMGEEAERVNAPVYTALTKFFRAYYFYELTLRFGDIPYSQALKGEKEEIYTPEYDAQEDVFAGILQELREADEILANDASVIDGDIIYNGNSTQWRKLINSFRLKVLMTLSNHTTVGNINIASEFKNIATNSPLMNSLADNGQLVYLDQQGNRYPQFNAQWSGYYMDDTFIQRMRERRDPRLFIFSAQTNKGKTEGKPIDDFSSYEGGDPAAPYSDAIIKVSEGTISPINDRFRTDPIVEPTMLMGYAELQQILAEAVVRGWISGNAQTYYEKGIRASFSFYETHAKDYAGYLNENAVAQYLKEPLVDFTQASGTEEQIERIIMQKYLVTFYQGNWDSFYEQLRTGYPDFRRPAGTEIPKRWMYPQGEYDNNGTNVETAITRQFGAGNDKINQATWWQKKS
# How the values were obtained:
# Experiment in all cases: glycan array binding signal (z-score within array); higher = stronger binding
# Details in all cases: glycan notation: IUPAC condensed, linker removed
# Gal(b1-2)Gal = target: Gal(b1-2)Gal
# Method in brief: (§1)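 From the Consortium for Functional Glycomics database, 3228 arrays were curated, keeping only those whose protein sequence was available. Binding is given as a within-array Z-score averaged across arrays sharing a protein sequence and across linkers. Negative Z-scores can be read as non-binding.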
# Gal(b1-3)Gal = target: Gal(b1-3)Gal
# Method in brief: as §1
# Gal(b1-3)Gal(b1-4)GlcNAc = target: Gal(b1-3)Gal(b1-4)GlcNAc
# Method in brief: as §1
# Gal(b1-3)GalNAc = target: Gal(b1-3)GalNAc
# Method in brief: as §1
# [1] = target: Gal(b1-3)GalNAc(a1-3)[Fuc(a1-2)]Gal(b1-4)Glc
# Method in brief: as §1
# [2] = target: Gal(b1-3)GalNAc(a1-3)[Fuc(a1-2)]Gal(b1-4)GlcNAc
# Method in brief: as §1
# Gal(b1-3)GalNAc(b1-3)Gal = target: Gal(b1-3)GalNAc(b1-3)Gal
# Method in brief: as §1
# [3] = target: Gal(b1-3)GalNAc(b1-3)Gal(a1-4)Gal(b1-4)Glc
# Method in brief: as §1
# [4] = target: Gal(b1-3)GalNAc(b1-4)Gal(b1-4)Glc
# Method in brief: as §1
# [5] = target: Gal(b1-3)GalNAc(b1-4)[Neu5Ac(a2-3)]Gal(b1-4)Glc
# Method in brief: as §1
# Gal(b1-3)GlcNAc = target: Gal(b1-3)GlcNAc
# Method in brief: as §1
# [6] = target: Gal(b1-3)GlcNAc(a1-3)Gal(b1-4)GlcNAc
# Method in brief: as §1
# [7] = target: Gal(b1-3)GlcNAc(a1-6)Gal(b1-4)GlcNAc
# Method in brief: as §1
# Gal(b1-3)GlcNAc(b1-2)Man = target: Gal(b1-3)GlcNAc(b1-2)Man
# Method in brief: as §1
# [8] = target: Gal(b1-3)GlcNAc(b1-2)Man(a1-3)[Gal(b1-3)GlcNAc(b1-2)Man(a1-6)]Man(b1-4)GlcNAc(b1-4)GlcNAc
# Method in brief: as §1
# [9] = target: Gal(b1-3)GlcNAc(b1-2)Man(a1-3)[Gal(b1-3)GlcNAc(b1-2)Man(a1-6)]Man(b1-4)GlcNAc(b1-4)[Fuc(a1-6)]GlcNAc
# Method in brief: as §1
# [10] = target: Gal(b1-3)GlcNAc(b1-2)Man(a1-3)[GlcNAc(b1-4)][Gal(b1-3)GlcNAc(b1-2)Man(a1-6)]Man(b1-4)GlcNAc(b1-4)GlcNAc
# Method in brief: as §1
# [11] = target: Gal(b1-3)GlcNAc(b1-2)[Gal(b1-3)GlcNAc(b1-6)]Man(a1-6)[Gal(b1-3)GlcNAc(b1-2)Man(a1-3)]Man(b1-4)GlcNAc(b1-4)GlcNAc
# Method in brief: as §1
# [12] = target: Gal(b1-3)GlcNAc(b1-3)Gal(b1-3)GlcNAc
# Method in brief: as §1
# [13] = target: Gal(b1-3)GlcNAc(b1-3)Gal(b1-4)Glc
# Method in brief: as §1
# [14] = target: Gal(b1-3)GlcNAc(b1-3)Gal(b1-4)GlcNAc
# Method in brief: as §1
# [15] = target: Gal(b1-3)GlcNAc(b1-3)Gal(b1-4)GlcNAc(b1-2)Man(a1-3)[Gal(b1-3)GlcNAc(b1-3)Gal(b1-4)GlcNAc(b1-2)Man(a1-6)]Man(b1-4)GlcNAc(b1-4)GlcNAc
# Method in brief: as §1
# [16] = target: Gal(b1-3)GlcNAc(b1-3)Gal(b1-4)GlcNAc(b1-2)[Gal(b1-3)GlcNAc(b1-3)Gal(b1-4)GlcNAc(b1-6)]Man(a1-6)[Gal(b1-3)GlcNAc(b1-3)Gal(b1-4)GlcNAc(b1-2)Man(a1-3)]Man(b1-4)GlcNAc(b1-4)[Fuc(a1-6)]GlcNAc
# Method in brief: as §1
# [17] = target: Gal(b1-3)GlcNAc(b1-3)Gal(b1-4)GlcNAc(b1-3)Gal(b1-4)GlcNAc(b1-2)[Gal(b1-3)GlcNAc(b1-3)Gal(b1-4)GlcNAc(b1-3)Gal(b1-4)GlcNAc(b1-6)]Man(a1-6)[Gal(b1-3)GlcNAc(b1-3)Gal(b1-4)GlcNAc(b1-3)Gal(b1-4)GlcNAc(b1-2)Man(a1-3)]Man(b1-4)GlcNAc(b1-4)[Fuc(a1-6)]GlcNAc
# Method in brief: as §1
# [18] = target: Gal(b1-3)GlcNAc(b1-3)Gal(b1-4)GlcNAc(b1-6)[Gal(b1-3)GlcNAc(b1-3)]Gal(b1-4)Glc
# Method in brief: as §1
# [19] = target: Gal(b1-3)GlcNAc(b1-3)Gal(b1-4)[Fuc(a1-3)]GlcNAc
# Method in brief: as §1
# [20] = target: Gal(b1-3)GlcNAc(b1-3)Gal(b1-4)[Fuc(a1-3)]GlcNAc(b1-6)[Gal(b1-3)GlcNAc(b1-3)]Gal(b1-4)Glc
# Method in brief: as §1
# [21] = target: Gal(b1-3)GlcNAc(b1-3)GalNAc
# Method in brief: as §1
# [22] = target: Gal(b1-3)GlcNAc(b1-6)Gal(b1-4)GlcNAc
# Method in brief: as §1
# [23] = target: Gal(b1-3)GlcNAc(b1-6)GalNAc
# Method in brief: as §1
# [24] = target: Gal(b1-3)GlcNAc(b1-6)[Gal(b1-3)]GalNAc
# Method in brief: as §1
# Gal(b1-3)GlcNAc6S = target: Gal(b1-3)GlcNAc6S
# Method in brief: as §1
# [25] = target: Gal(b1-3)[Fuc(a1-4)]GlcNAc
# Method in brief: as §1
# [26] = target: Gal(b1-3)[Fuc(a1-4)]GlcNAc(b1-2)Man
# Method in brief: as §1
# [27] = target: Gal(b1-3)[Fuc(a1-4)]GlcNAc(b1-2)Man(a1-3)[Gal(b1-3)[Fuc(a1-4)]GlcNAc(b1-2)Man(a1-6)]Man(b1-4)GlcNAc(b1-4)[Fuc(a1-6)]GlcNAc
# Method in brief: as §1
# [28] = target: Gal(b1-3)[Fuc(a1-4)]GlcNAc(b1-3)Gal(b1-3)[Fuc(a1-4)]GlcNAc
# Method in brief: as §1
# [29] = target: Gal(b1-3)[Fuc(a1-4)]GlcNAc(b1-3)Gal(b1-4)[Fuc(a1-3)]GlcNAc
# Method in brief: as §1
# [30] = target: Gal(b1-3)[Fuc(a1-4)]GlcNAc(b1-6)GalNAc
# Method in brief: as §1
# [31] = target: Gal(b1-3)[GlcNAc(b1-6)]GalNAc
# Method in brief: as §1
# [32] = target: Gal(b1-3)[Neu5Ac(a2-6)]GalNAc
# Method in brief: as §1
# [33] = target: Gal(b1-3)[Neu5Ac(a2-6)]GlcNAc(b1-4)Gal(b1-4)Glc
# Method in brief: as §1
# [34] = target: Gal(b1-3)[Neu5Ac(b2-6)]GalNAc
# Method in brief: as §1
# Gal(b1-4)Gal = target: Gal(b1-4)Gal
# Method in brief: as §1
# [35] = target: Gal(b1-4)GalNAc(a1-3)[Fuc(a1-2)]Gal(b1-4)GlcNAc
# Method in brief: as §1
# [36] = target: Gal(b1-4)GalNAc(b1-3)[Fuc(a1-2)]Gal(b1-4)GlcNAc
# Method in brief: as §1
binder,measurement,setting,value
B1,glycan array binding signal (z-score),Gal(b1-2)Gal,0.045
same,glycan array binding signal (z-score),Gal(b1-3)Gal,-0.048
same,glycan array binding signal (z-score),Gal(b1-3)Gal(b1-4)GlcNAc,-0.396
same,glycan array binding signal (z-score),Gal(b1-3)GalNAc,-0.115
same,glycan array binding signal (z-score),[1],-0.672
same,glycan array binding signal (z-score),[2],0.516
same,glycan array binding signal (z-score),Gal(b1-3)GalNAc(b1-3)Gal,-0.623
same,glycan array binding signal (z-score),[3],-0.061
same,glycan array binding signal (z-score),[4],-0.255
same,glycan array binding signal (z-score),[5],-0.4
same,glycan array binding signal (z-score),Gal(b1-3)GlcNAc,-0.335
same,glycan array binding signal (z-score),[6],-0.684
same,glycan array binding signal (z-score),[7],-0.189
same,glycan array binding signal (z-score),Gal(b1-3)GlcNAc(b1-2)Man,0.866
same,glycan array binding signal (z-score),[8],0.318
same,glycan array binding signal (z-score),[9],-0.342
same,glycan array binding signal (z-score),[10],-0.324
same,glycan array binding signal (z-score),[11],2.29
same,glycan array binding signal (z-score),[12],-0.347
same,glycan array binding signal (z-score),[13],-0.456
same,glycan array binding signal (z-score),[14],-0.48
same,glycan array binding signal (z-score),[15],-0.533
same,glycan array binding signal (z-score),[16],0.796
same,glycan array binding signal (z-score),[17],0.75
same,glycan array binding signal (z-score),[18],-0.003
same,glycan array binding signal (z-score),[19],0.374
same,glycan array binding signal (z-score),[20],0.745
same,glycan array binding signal (z-score),[21],-0.634
same,glycan array binding signal (z-score),[22],9.32
same,glycan array binding signal (z-score),[23],-0.482
same,glycan array binding signal (z-score),[24],0.913
same,glycan array binding signal (z-score),Gal(b1-3)GlcNAc6S,-1.09
same,glycan array binding signal (z-score),[25],-0.259
same,glycan array binding signal (z-score),[26],-0.359
same,glycan array binding signal (z-score),[27],1.45
same,glycan array binding signal (z-score),[28],-0.036
same,glycan array binding signal (z-score),[29],-0.365
same,glycan array binding signal (z-score),[30],-0.017
same,glycan array binding signal (z-score),[31],0.216
same,glycan array binding signal (z-score),[32],-0.328
same,glycan array binding signal (z-score),[33],-0.368
same,glycan array binding signal (z-score),[34],-0.813
same,glycan array binding signal (z-score),Gal(b1-4)Gal,-0.318
same,glycan array binding signal (z-score),[35],-0.448
same,glycan array binding signal (z-score),[36],-0.247
